From the supplement of paper PMC4967469
By IC50 is meant the dose at which the fit gives 50% viability; a fit beyond the top or the lowest dose is shown as a bound at that dose. AUC, from the same fit, is the share of area under the viability curve across the 256-fold dose range; the more sensitive the line, the further below 1. For some of these results: Any top dose called inferred was calculated from the reported fits. For some of these results: Where an entry number is given, a second screen of the drug exists; the two often differ.

Experiments:
Experiment in all cases: Viability of human cancer cell lines after 72 h of drug (GDSC screen)
[1] = compound: Oc1cccc(-c2nc(N3CCOCC3)c3oc4ncccc4c3n2)c1 [PI-103]; conditions: top dose 10.24 µM
Protocol: (§1)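 Human cancer cell lines in 384-well plates, medium with 10% serum, drug for 72 h over a 256-fold dose range (nine 2-fold or five 4-fold steps up to the top dose). Adherent lines were fixed and stained with the nucleic acid dye Syto60, suspension lines read with resazurin; signal relative to control wells, capped at 0 and 100%. One two-parameter sigmoid per drug and line, fitted in a mixed model over all curves with the slope shared within a line.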

[2] = compound: COc1cc2c(NC3CCN(C(C)C)CC3)nc(C3CCCCC3)nc2cc1OCCCN1CCCC1 [UNC0638]
Protocol: as §1

[3] = compound: Cc1cccc(-c2[nH]c(C(C)(C)C)nc2-c2ccc3c(c2)OCO3)n1 [SB-505124]; conditions: top dose 10 µM; top dose inferred
Protocol: as §1

[4] = compound: CCn1c(-c2nonc2N)nc2c(C#CC(C)(C)O)ncc(OC[C@H]3CCCNC3)c21 [GSK690693]; conditions: top dose 10.24 µM; top dose inferred
Protocol: as §1

[5] = compound: O=C(NCCCNc1nc(Nc2cccc(NC(=O)N3CCCC3)c2)ncc1I)c1cccs1 [BX-795]; conditions: top dose 5 µM; top dose inferred
Protocol: as §1

[6] = compound: CC1=C(/C=C/C(C)=C/C=C/C(C)=C/C(=O)O)C(C)(C)CCC1 [Tretinoin]; conditions: top dose 10 µM; top dose inferred
Protocol: as §1

[7] = top dose 20 µM, screen: GDSC drug entry 1236, top dose inferred
[8] = top dose 40 µM, screen: GDSC drug entry 245

Cell Line: MOLT-13 (T-cell lymphoblastic leukaemia, suspension)
- AUC [1]: 0.817
- IC50 [1]: 4.86 µM
- AUC [2, 7]: 0.694
- IC50 [2, 7]: 4.06 µM
- AUC [2, 8]: 0.577
- IC50 [2, 8]: 3.95 µM
- AUC [3]: 0.96
- IC50 [3]: > 10 µM
- AUC [4]: 0.883
- IC50 [4]: 8.69 µM
- AUC [5]: 0.726
- IC50 [5]: 1.24 µM

Cell Line: NCI-H522 (lung adenocarcinoma, adherent)
- AUC [1]: 0.939
- IC50 [1]: > 10.2 µM
- AUC [2, 7]: 0.872
- IC50 [2, 7]: > 20 µM
- AUC [2, 8]: 0.877
- IC50 [2, 8]: > 40 µM
- AUC [3]: 0.977
- IC50 [3]: > 10 µM
- AUC [4]: 0.978
- IC50 [4]: > 10.2 µM
- AUC [5]: 0.884
- IC50 [5]: > 5 µM

Cell Line: NCI-H1734 (lung adenocarcinoma, adherent)
- AUC [1]: 0.765
- IC50 [1]: 4.1 µM
- AUC [2, 8]: 0.663
- IC50 [2, 8]: 7.48 µM
- AUC [6]: 0.985
- IC50 [6]: > 10 µM
- AUC [4]: 0.943
- IC50 [4]: > 10.2 µM

Cell Line: NCI-H2023 (lung adenocarcinoma, adherent)
- AUC [1]: 0.967
- IC50 [1]: > 10.2 µM
- AUC [2, 7]: 0.757
- IC50 [2, 7]: 8.47 µM
- AUC [2, 8]: 0.838
- IC50 [2, 8]: 37 µM
- AUC [3]: 0.979
- IC50 [3]: > 10 µM
- AUC [4]: 0.966
- IC50 [4]: > 10.2 µM
- AUC [5]: 0.87
- IC50 [5]: > 5 µM

Cell Line: NCI-H2030 (lung adenocarcinoma, adherent)
- AUC [1]: 0.571
- IC50 [1]: 1.03 µM
- AUC [2, 7]: 0.717
- IC50 [2, 7]: 5.68 µM
- AUC [2, 8]: 0.686
- IC50 [2, 8]: 8.99 µM
- AUC [3]: 0.957
- IC50 [3]: > 10 µM
- AUC [4]: 0.964
- IC50 [4]: > 10.2 µM
- AUC [5]: 0.924
- IC50 [5]: > 5 µM

Cell Line: NCI-H2085 (lung adenocarcinoma, adherent)
- AUC [1]: 0.21
- IC50 [1]: 0.0824 µM
- AUC [2, 7]: 0.985
- IC50 [2, 7]: > 20 µM
- AUC [2, 8]: 0.784
- IC50 [2, 8]: 18.5 µM
- AUC [3]: 0.985
- IC50 [3]: > 10 µM
- AUC [4]: 0.935
- IC50 [4]: > 10.2 µM
- AUC [5]: 0.844
- IC50 [5]: 4.02 µM

Cell Line: NUGC-3 (stomach, adherent)
- AUC [1]: 0.77
- IC50 [1]: 4.38 µM
- AUC [2, 7]: 0.79
- IC50 [2, 7]: 10.2 µM
- AUC [2, 8]: 0.773
- IC50 [2, 8]: 17.5 µM
- AUC [3]: 0.964
- IC50 [3]: > 10 µM
- AUC [4]: 0.961
- IC50 [4]: > 10.2 µM
- AUC [5]: 0.927
- IC50 [5]: > 5 µM

Cell Line: OAW-28 (ovary, adherent)
- AUC [1]: 0.534
- IC50 [1]: 0.815 µM
- AUC [2, 7]: 0.956
- IC50 [2, 7]: > 20 µM
- AUC [2, 8]: 0.762
- IC50 [2, 8]: 18 µM
- AUC [3]: 0.98
- IC50 [3]: > 10 µM
- AUC [4]: 0.977
- IC50 [4]: > 10.2 µM
- AUC [5]: 0.931
- IC50 [5]: > 5 µM

Cell Line: OSC-19 (head and neck, adherent)
- AUC [1]: 0.805
- IC50 [1]: 5.4 µM
- AUC [2, 7]: 0.984
- IC50 [2, 7]: > 20 µM
- AUC [2, 8]: 0.906
- IC50 [2, 8]: > 40 µM
- AUC [3]: 0.984
- IC50 [3]: > 10 µM
- AUC [4]: 0.982
- IC50 [4]: > 10.2 µM
- AUC [5]: 0.782
- IC50 [5]: 2.19 µM

Cell Line: OVCAR-3 (ovary, adherent)
- AUC [1]: 0.987
- IC50 [1]: > 10.2 µM
- AUC [2, 7]: 0.811
- IC50 [2, 7]: 11.9 µM
- AUC [2, 8]: 0.987
- IC50 [2, 8]: > 40 µM
- AUC [3]: 0.985
- IC50 [3]: > 10 µM
- AUC [4]: 0.987
- IC50 [4]: > 10.2 µM
- AUC [5]: 0.9
- IC50 [5]: > 5 µM

Cell Line: OVCAR-8 (ovary, adherent)
- AUC [1]: 0.446
- IC50 [1]: 0.462 µM
- AUC [2, 7]: 0.836
- IC50 [2, 7]: 11.4 µM
- AUC [2, 8]: 0.67
- IC50 [2, 8]: 7.04 µM
- AUC [3]: 0.989
- IC50 [3]: > 10 µM
- AUC [4]: 0.982
- IC50 [4]: > 10.2 µM
- AUC [5]: 0.893
- IC50 [5]: 4.88 µM

Cell Line: PANC-10-05 (pancreas, adherent)
- AUC [1]: 0.342
- IC50 [1]: 0.205 µM
- AUC [2, 7]: 0.959
- IC50 [2, 7]: > 20 µM
- AUC [2, 8]: 0.728
- IC50 [2, 8]: 13.6 µM
- AUC [3]: 0.979
- IC50 [3]: > 10 µM
- AUC [4]: 0.823
- IC50 [4]: 8.43 µM
- AUC [5]: 0.947
- IC50 [5]: > 5 µM

Cell Line: PCI-6A (head and neck, adherent)
- AUC [1]: 0.963
- IC50 [1]: > 10.2 µM
- AUC [2, 7]: 0.896
- IC50 [2, 7]: > 20 µM
- AUC [2, 8]: 0.679
- IC50 [2, 8]: 7.81 µM
- AUC [3]: 0.986
- IC50 [3]: > 10 µM
- AUC [4]: 0.963
- IC50 [4]: > 10.2 µM
- AUC [5]: 0.717
- IC50 [5]: 1.27 µM

Cell Line: RERF-GC-1B (stomach, adherent)
- AUC [1]: 0.71
- IC50 [1]: 2.71 µM
- AUC [2, 7]: 0.852
- IC50 [2, 7]: 18.4 µM
- AUC [2, 8]: 0.707
- IC50 [2, 8]: 10.4 µM
- AUC [3]: 0.983
- IC50 [3]: > 10 µM
- AUC [4]: 0.923
- IC50 [4]: > 10.2 µM
- AUC [5]: 0.962
- IC50 [5]: > 5 µM

Cell Line: SK-CO-1 (large intestine, adherent)
- AUC [1]: 0.989
- IC50 [1]: > 10.2 µM
- AUC [2, 7]: 0.872
- IC50 [2, 7]: 17.2 µM
- AUC [2, 8]: 0.865
- IC50 [2, 8]: 31.9 µM
- AUC [3]: 0.985
- IC50 [3]: > 10 µM
- AUC [4]: 0.989
- IC50 [4]: > 10.2 µM
- AUC [5]: 0.914
- IC50 [5]: > 5 µM

Cell Line: SK-LU-1 (lung adenocarcinoma, adherent)
- AUC [1]: 0.668
- IC50 [1]: 2.14 µM
- AUC [2, 7]: 0.827
- IC50 [2, 7]: 16.9 µM
- AUC [2, 8]: 0.707
- IC50 [2, 8]: 11.4 µM
- AUC [3]: 0.978
- IC50 [3]: > 10 µM
- AUC [4]: 0.981
- IC50 [4]: > 10.2 µM
- AUC [5]: 0.836
- IC50 [5]: 4.68 µM

Cell Line: SK-MEL-28 (melanoma, adherent)
- AUC [1]: 0.729
- IC50 [1]: 2.83 µM
- AUC [2, 7]: 0.632
- IC50 [2, 7]: 2.87 µM
- AUC [2, 8]: 0.776
- IC50 [2, 8]: 15.6 µM
- AUC [3]: 0.987
- IC50 [3]: > 10 µM
- AUC [4]: 0.988
- IC50 [4]: > 10.2 µM
- AUC [5]: 0.913
- IC50 [5]: > 5 µM

Cell Line: SU-DHL-10 (B-cell lymphoma, suspension)
- AUC [1]: 0.047
- IC50 [1]: 0.0418 µM
- AUC [2, 7]: 0.869
- IC50 [2, 7]: 10.1 µM
- AUC [2, 8]: 0.749
- IC50 [2, 8]: 9.98 µM
- AUC [3]: 0.994
- IC50 [3]: > 10 µM
- AUC [4]: 0.121
- IC50 [4]: 0.0744 µM
- AUC [5]: 0.853
- IC50 [5]: 2.29 µM

Cell Line: SW900 (lung squamous cell carcinoma, adherent)
- AUC [1]: 0.845
- IC50 [1]: 9.23 µM
- AUC [2, 7]: 0.805
- IC50 [2, 7]: 12.1 µM
- AUC [2, 8]: 0.765
- IC50 [2, 8]: 16.9 µM
- AUC [3]: 0.982
- IC50 [3]: > 10 µM
- AUC [4]: 0.985
- IC50 [4]: > 10.2 µM
- AUC [5]: 0.899
- IC50 [5]: > 5 µM

Cell Line: TCCSUP (bladder, adherent)
- AUC [1]: 0.933
- IC50 [1]: > 10.2 µM
- AUC [2, 7]: 0.82
- IC50 [2, 7]: 13.7 µM
- AUC [2, 8]: 0.864
- IC50 [2, 8]: > 40 µM
- AUC [3]: 0.966
- IC50 [3]: > 10 µM
- AUC [4]: 0.984
- IC50 [4]: > 10.2 µM
- AUC [5]: 0.891
- IC50 [5]: > 5 µM

Cell Line: U031 (kidney, adherent)
- AUC [1]: 0.466
- IC50 [1]: 0.516 µM
- AUC [2, 7]: 0.574
- IC50 [2, 7]: 2.01 µM
- AUC [2, 8]: 0.752
- IC50 [2, 8]: 13.7 µM
- AUC [3]: 0.983
- IC50 [3]: > 10 µM
- AUC [4]: 0.95
- IC50 [4]: > 10.2 µM
- AUC [5]: 0.935
- IC50 [5]: > 5 µM

Cell Line: VM-CUB-1 (bladder, adherent)
- AUC [1]: 0.973
- IC50 [1]: > 10.2 µM
- AUC [2, 7]: 0.975
- IC50 [2, 7]: > 20 µM
- AUC [2, 8]: 0.974
- IC50 [2, 8]: > 40 µM
- AUC [3]: 0.987
- IC50 [3]: > 10 µM
- AUC [4]: 0.987
- IC50 [4]: > 10.2 µM
- AUC [5]: 0.796
- IC50 [5]: 2.26 µM

Cell Line: VMRC-RCW (kidney, adherent)
- AUC [1]: 0.806
- IC50 [1]: 4.76 µM
- AUC [2, 8]: 0.953
- IC50 [2, 8]: > 40 µM
- AUC [6]: 0.95
- IC50 [6]: > 10 µM
- AUC [4]: 0.986
- IC50 [4]: > 10.2 µM
